“And” between values parts separate entries of the source, which are not always exact repeats. Identical values can stand only once. Hit rate of the full screen: of about 150,000 compounds, about 540 (0.36%) showed an effect of 50% or more. Some of the results follow.
Tested on: Plasmodium falciparum
Assay: Primary screen in NF54 nanoGlo assay, in single point, at 2uM, 72h; a lower Z score goes with more inhibition
Assay type: functional, Erythrocyte
Conditions: timepoint 72 hour

Compound | % Inhibition [%] | Z score | % Inhibition (2 µM)
COc1cc(Cl)ccc1OCC#CCN1CCOCC1 | -8 | 0.83 | –
CC(C(=O)Nc1ccc(C#N)c(Cl)c1)N1CC2OCCN(C)C2C1 (configuration not stated) | -6 | 0.8 | –
CC(C)n1nccc1C(=O)N[C@H]1COC[C@@H]1N1CCCC1 | -17 | 1.86 | –
CC(Cc1ccc(F)cc1)NC1CCCCNC1=O (configuration not stated) | -15 | 2.25 | –
C1CCC2(C1)CCN(CCN1CCOCC1)C2 | 4 | -0.42 | –
Cc1cc(N(C)C2CCN(Cc3ccncc3)CC2)nc(C(C)C)n1 | 3 | -0.36 | –
N[C@H]1C[C@@H]1c1ccccc1OC(F)(F)F | 4 | -0.71 | –
CN1Cc2ccccc2-n2ccnc2C12CCN(C(=O)c1ccccn1)CC2 | 6 | -1.05 | –
CCCc1cncnc1N1C[C@H]2CC[C@@H](C1)N(CCC)C2 | 7 | -1.29 | –
CC(C)(NC(=O)c1cccs1)C(=O)NCCc1c[nH]cn1 | 1 | -0.09 | –
CC1CN(c2cncc(Br)c2)CC1N1CCOCC1 (configuration not stated) | -3 | 0.48 | –
Cc1cc(C(=O)N2CC[C@@H]3CN(Cc4ccncc4)[C@@H]3C2)ccn1 | -3 | 0.37 | –
O=C(Nc1ccccc1)OC[C@H]1C[C@@H]2CCN1C[C@@H]2c1cc(C2CCCC2)nc(-c2ccncc2)n1 | 0 | -0.01 | –
Cc1cccc(CCN2CCN3C(=O)OC[C@H]3C2)n1 | -3 | 0.59 | –
O=C(NC[C@H]1CCCCC1(F)F)c1cccc2oc(=O)[nH]c12 | -1 | 0.13 | –
CC(C)(C)c1ccc(S(=O)(=O)CCN2C[C@@H]3C[C@@H](C2)c2cccc(=O)n2C3)cc1 | 4 | -0.81 | –
CCn1c(=O)oc2cc(S(=O)(=O)N3CCC(CC(=O)Nc4ccc(C(C)C)cc4)CC3)ccc21 | -4 | 0.36 | –
CC1CCNC(=O)C1NC(=O)Nc1ccc(C#N)c(C(F)(F)F)c1 (configuration not stated) | 39 | -5.61 | –
COC1CCC(NC(=O)CCc2ccc(S(=O)(=O)F)cc2)CC1 (configuration not stated) | -3 | 0.34 | –
O=c1ccc(-c2ccccc2)c2n1C[C@H]1C[C@@H]2CN(Cc2cnc3ccccc3c2)C1 | -10 | 1.51 | –
CN(C)c1nccc(N2CCC[C@H]2c2cccnc2)n1 | -3 | 0.65 | –

Compound | % Inhibition [%] | Z score | % Inhibition (2 µM)
O=C(Oc1ccccc1)N1C2C1C1CC2N(C(F)(F)F)C1(F)F (configuration not stated) | -2 | 0.31 | –
C[C@@H](Cn1cccn1)NCc1cc(Br)c2c(c1)OCO2 | 21 | -2.48 | –
C[C@@H](Cc1ccccc1F)NC(=O)NCCC(F)(F)F | -4 | 0.42 | –
O=C1O[C@H]2CN(Cc3ccccn3)C[C@H]2N1C1CCCC1 | -22 | 1.9 | –
Cc1cccc(NC(=O)N2CCN(CCO[C@@H](c3ccccc3)c3cccc(C(F)(F)F)c3)CC2)c1 | 0 | 0.02 | –
CN1C(=O)C(C(=O)c2ccc(Cl)cc2)C(=O)N(C)C1=O | -10 | 1.14 | –
c1ccc(-c2ccc3c(c2)CNCC3)cc1 | -2 | 0.41 | –
COc1cccc(C(=O)[C@H]2CCCN(C3CCN(C(C)C)CC3)C2)c1 | -6 | 0.78 | –
NCCc1cc(Cl)ccc1Br | -9 | 1.39 | –
Cc1ccc([C@H]2CN(c3nccnc3C)[C@@H]3C4CCN(CC4)[C@H]23)cc1 | -1 | 0.15 | –
C[C@@H](c1ncc(C(C)(C)C)o1)n1nc(-c2ccco2)oc1=O | -4 | 0.53 | –
O=C(CC[C@@H]1CCCN2CCCC[C@H]12)N1CCc2ncccc2C1 | -9 | 1.17 | –
Cc1cc(C(F)(F)F)c2c(C(N)=O)cn(C(C)(C)C)c2n1 | 35 | -1.1 | –
CC(C)c1noc(N2CCC[C@H]2c2cccnc2)n1 | -1 | 0.19 | –
Cc1oc2nc(CN3CCOC4(CCOCC4)C3)nc(N)c2c1C | -2 | 0.27 | –
Cc1cc(C)n(C[C@H](C)N(C)CCc2scnc2C)n1 | -3 | 0.54 | –
Cc1noc([C@@H]2CN(C(=O)COc3ccc(F)cc3)CCCN2CC(C)C)n1 | -7 | 1.39 | –
CN1CC[C@H](CNS(=O)(=O)c2ccc3[nH]c(=O)oc3c2)CC1=O | -10 | 1.13 | –
Cc1nn(C(C)(C)C)c(C)c1C(=O)Oc1ccc2c(c1)OCO2 | -4 | 0.74 | –
C[C@H]1CCN(C(=O)Cc2ccc(N)cc2)CCN1Cc1ccccc1 | -6 | 0.58 | –
CCC1CN2CCCC2CN1Cc1ccc(OC)nn1 (configuration not stated) | -4 | 0.61 | –

Compound | % Inhibition [%] | Z score | % Inhibition (2 µM)
CC(Cc1ccc(O)cc1)N(C)C[C@@H](O)c1ccccc1 (some centres not stated) | -20 | 2.6 | –
Cc1ccccc1Nc1nnc(CC(=O)N2CCN(Cc3ccccc3)CC2)s1 | -6 | 0.64 | –
CC(Cc1ccno1)NCC(C)(O)C(=O)OC(C)(C)C (configuration not stated) | 16 | -2.05 | –
C[C@@H](Cc1ccccc1F)NCc1nnc2ccccn12 | -5 | 1.01 | –
O=C(C1CC1c1cccc2ccccc12)N1CCC2(CC1)OCCO2 (configuration not stated) | 3 | -0.31 | –
CC(C)N1C2CCC1CN(c1ccc3nccnc3n1)CC2 (configuration not stated) | -11 | 1.65 | –
Cc1ccc(N2C[C@@H](c3nc(-c4ccc5c(c4)oc(=O)n5C(C)C)no3)CC2=O)cc1 | -7 | 0.65 | –
c1ccc(CCN(Cc2ccccc2)Cc2cccnc2)cc1 | -10 | 1.38 | –
COC1(Cc2nc([C@@H]3CN4CCN3CC4)no2)CCC1 | -4 | 0.74 | –
CCC1CN(CC=C(C)C)CC2(CCOC2)O1 (configuration not stated) | 1 | -0.1 | –
Oc1ccc([C@H]2N(n3cnnc3)C2(Cl)Cl)c(O)c1 | 12 | -1.55 | –
CCC(=O)N1CCC(N2C[C@H](OC)[C@@H]2c2cccnc2)CC1 | -12 | 1.39 | –
CC(C)c1noc(N2C[C@@H]3OCCN(C)[C@@H]3C2)n1 | -7 | 1.42 | –
Cc1ccccc1-n1c(O)c(Cc2c(Cl)cccc2Cl)c(O)nc1=O | – | – | -9% and -4% and 1%
Cc1c(C)[n+]([O-])c([C@@H](c2cccc(O)c2)C2C(=O)N(C)C(=O)N(C)C2=O)n1Cc1ccccc1 | -7 | 0.83 | –
O=C(Nc1ccc2n(c1=O)C[C@H]1C[C@@H]2CN(Cc2ccc(F)cc2)C1)c1ccncc1 | 13 | -1.62 | –
Cn1c(=O)n(CC(=O)N2CCC[C@H](c3n[nH]c(=O)o3)C2)c2ccccc21 | -10 | 1.12 | –
COc1ccc(C(=O)N(c2cc(C)cc(C)c2)C2(C(=O)NCc3ccccc3)CCN(C(C)=O)CC2)cc1 | -11 | 1.55 | –
O[C@H]1COCCN(Cc2cccnc2)C1 | -8 | 1.3 | –
C[C@@H](Cn1cnc2c(cnn2C)c1=O)NCc1ccccc1 | -2 | 0.38 | –
CC(C)(C)c1nn(Cc2nc(-c3cccs3)no2)c(=O)o1 | 10 | -2 | –

Compound | % Inhibition [%] | Z score | % Inhibition (2 µM)
Cc1nc(N)sc1CC(=O)N1CCN(CCCCO)CC1 | -6 | 0.75 | –
O=C(NCc1ccc(CO)c(F)c1)N1CCC(Nc2ccccc2F)CC1 | -12 | 1.53 | –
CCN1CC[C@@]2(CCC1=O)CN(C(=O)Cc1ccsc1)CCN2C | -17 | 1.68 | –
CCCc1nc(CN[C@@H](C)Cn2cc(C)cn2)no1 | -4 | 0.54 | –
COc1ccc(Cl)cc1NCC(=O)N1CCC2(CC1)OCCO2 | -14 | 2.71 | –
CC(=O)N[C@H]1C[C@H]2CN(Cc3cccnc3)[C@@H](C)C(=O)N2C1 | -21 | 1.81 | –
COc1ccc(-c2cn(C[C@H]3C[C@@H]4CCN3C[C@@H]4C(=O)NCc3ccccc3)nn2)cc1 | 32 | -3.59 | –
Cc1noc(C)c1C(=O)N1C2CCC1c1cncnc1C2 (configuration not stated) | -5 | 0.68 | –
CC(C)NC(=O)N1C[C@@H]2C[C@H](C1)c1c(-c3cncnc3)ccc(=O)n1C2 | 31 | -3.45 | –
C[C@]1(c2ccccc2Cl)NC(=O)N(CC(=O)Nc2ccc(Cl)cc2C(=O)c2ccccc2)C1=O | -1 | 0.1 | –
COc1cccc([C@H]2CN(C(=O)c3cccnc3C)[C@@H]3C4CCN(CC4)[C@H]23)c1 | -9 | 1.67 | –
Cn1ncc2c(=O)[nH]c(CN3CCC4CCCCC43)nc21 (configuration not stated) | -2 | 0.29 | –
CN1[C@@H]2CCC[C@H]1c1c(nc(N)c(C#N)c1-c1cccc(OCCO)c1)C2 | -15 | 2.26 | –
Cn1nc(C2CCCCC2)cc1NC(=O)CC1CC2CCC(C1)N2 (configuration not stated) | -7 | 0.67 | –
C=CCNC(=O)c1c(COc2ccc(C)cc2)n(Cc2ccccn2)c(C)cc1=O | 12 | -1.71 | –
C[C@H](NC(=O)c1cccc2oc(=O)[nH]c12)C1(S(C)(=O)=O)CC1 | 8 | -1.06 | –
Cc1nc(-c2ccccc2)nc2c1CC(=O)N2CCN1CCCCC1 | -13 | 1.88 | –
OCC(CO)N1CC[C@@H]2OCc3cnnn3[C@H]2C1 | -8 | 1.24 | –
O=C(COc1ccc(Cl)cc1)N1CCCN(C2CCC2)CC1 | -24 | 4.15 | –
O=C(c1cnccn1)N1C[C@@H](c2cccc(F)c2F)[C@@H]2[C@H]1C1CCN2CC1 | -13 | 2.42 | –
COc1ccc(C)cc1C[C@H]1CCCN1 | -38 | 4.48 | –

From ChEMBL document CHEMBL4888484, “Replenishing the malaria drug discovery pipeline: Screening and hit evaluation of the MMV Hit Generation Library 1 (HGL1) against asexual blood stage Plasmodium falciparum ,using a nano luciferase reporter read-out” (2022)
